Results as given in publication PMC5550695.
These are yes or no findings as the source states them, for the method shown. For part of these data: Binding seen in cells or lysates may run through a third protein. Some entries that bind do so weakly or less than the wild type. Tags and fused reporters may be left off the sequences shown. Each block holds one binder with its values, some of them ahead of it.

Assays:
[1] = biological target: T1, Arabidopsis MKKK20, GAL4 DNA-binding domain bait in pDEST32 (Arabidopsis thaliana) (UniProt Q9SND6); assay: two-hybrid; directed pairwise test, ProQuest system, yeast strain MaV203; DBD bait and AD prey introduced pairwise; HIS3 and URA3 activation scored by visual comparison to the controls
T1 sequence: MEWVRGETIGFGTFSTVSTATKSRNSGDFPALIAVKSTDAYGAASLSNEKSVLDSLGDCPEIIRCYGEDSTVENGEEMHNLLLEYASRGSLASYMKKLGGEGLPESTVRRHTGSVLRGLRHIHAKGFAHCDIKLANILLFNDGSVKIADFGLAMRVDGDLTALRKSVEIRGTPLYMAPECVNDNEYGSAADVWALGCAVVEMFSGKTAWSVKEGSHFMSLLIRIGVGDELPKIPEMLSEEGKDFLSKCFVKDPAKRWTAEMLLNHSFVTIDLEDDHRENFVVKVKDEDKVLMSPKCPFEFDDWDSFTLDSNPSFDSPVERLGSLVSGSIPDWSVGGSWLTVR

[2] = biological target: T2, Arabidopsis MKKK20, split-YFP fusion for BiFC (Arabidopsis thaliana) (UniProt Q9SND6); assay: split reporter; BiFC with split YFP (pUC-SPYCE / pUC-SPYNE) in onion epidermal cells, transient transformation by microparticle bombardment, fluorescence microscopy
T2 sequence: T1 sequence

binding [1]: binds
B1: Arabidopsis MPK18, GAL4-activating domain fusion (enzyme, UniProt Q9C5C0 1-615)
chain: MQQNQVKKGTKEMEFFTEYGDANRYRILEVIGKGSYGVVCAAIDTHTGEKVAIKKINDVFEHISDALRILREVKLLRLLRHPDIVEIKSIMLPPSKREFKDIYVVFELMESDLHQVIKANDDLTREHHQFFLYQMLRALKFMHTANVYHRDLKPKNILANANCKLKVCDFGLARVAFNDTPTTVFWTDYVATRWYRAPELCGSFFSKYTPAIDVWSIGCIFAEVLTGKPLFPGKSVVHQLELITDLLGTPKSETISGVRNDKARKYLTEMRKKNPVTFSQKFSKADPLALRLLQRLLAFDPKDRPTPAEALADPYFKGLSKIEREPSSQQISKMEFEFERRRLTKDDIRELIYREILEYHPQLLKDYMSGSEGSNFVYPSAIGHLRQQFTYLEENSSRNGPVIPLERKHASLPRSTVHSTVVHSTSQPNLGATDSRRVSFEPSKNGASSAGHPSTSAYPTKSIGPPPRVPPSGRPGRVVESSVSYENGRNLKEAYFRSAVSSPHCYFRPNTMTNPENRNIEASSFPPKPQNPVHQFSPTEPPAATTNQADVETMNHPNPYFQPQLPKTDQLNNNTHMAIDAKLLQAQSQFGPAGAAAVAVAAHRNIGTISYSAAS

binding [1]: no binding
B2: Arabidopsis MKK7, GAL4-activating domain prey in pDEST22 (enzyme, UniProt Q9LPQ3 1-307)
chain: MALVRKRRQINLRLPVPPLSVHLPWFSFASSTAPVINNGISASDVEKLHVLGRGSSGIVYKVHHKTTGEIYALKSVNGDMSPAFTRQLAREMEILRRTDSPYVVRCQGIFEKPIVGEVSILMEYMDGGNLESLRGAVTEKQLAGFSRQILKGLSYLHSLKIVHRDIKPANLLLNSRNEVKIADFGVSKIITRSLDYCNSYVGTCAYMSPERFDSAAGENSDVYAGDIWSFGVMILELFVGHFPLLPQGQRPDWATLMCVVCFGEPPRAPEGCSDEFRSFVDCCLRKESSERWTASQLLGHPFLRESL

binding [1]: no binding
B3: Arabidopsis MKK4, GAL4-activating domain prey in pDEST22 (enzyme, UniProt O80397 1-366)
chain: MRPIQSPPGVSVPVKSRPRRRPDLTLPLPQRDVSLAVPLPLPPTSGGSGGSSGSAPSSGGSASSTNTNSSIEAKNYSDLVRGNRIGSGAGGTVYKVIHRPSSRLYALKVIYGNHEETVRRQICREIEILRDVNHPNVVKCHEMFDQNGEIQVLLEFMDKGSLEGAHVWKEQQLADLSRQILSGLAYLHSRHIVHRDIKPSNLLINSAKNVKIADFGVSRILAQTMDPCNSSVGTIAYMSPERINTDLNQGKYDGYAGDIWSLGVSILEFYLGRFPFPVSRQGDWASLMCAICMSQPPEAPATASPEFRHFISCCLQREPGKRRSAMQLLQHPFILRASPSQNRSPQNLHQLLPPPRPLSSSSSPTT

binding [1]: no binding
B4: Arabidopsis MKK5, GAL4-activating domain prey in pDEST22 (enzyme, UniProt Q8RXG3 1-348)
chain: MKPIQSPSGVASPMKNRLRKRPDLSLPLPHRDVALAVPLPLPPPSSSSSAPASSSAISTNISAAKSLSELERVNRIGSGAGGTVYKVIHTPTSRPFALKVIYGNHEDTVRRQICREIEILRSVDHPNVVKCHDMFDHNGEIQVLLEFMDQGSLEGAHIWQEQELADLSRQILSGLAYLHRRHIVHRDIKPSNLLINSAKNVKIADFGVSRILAQTMDPCNSSVGTIAYMSPERINTDLNHGRYDGYAGDVWSLGVSILEFYLGRFPFAVSRQGDWASLMCAICMSQPPEAPATASQEFRHFVSCCLQSDPPKRWSAQQLLQHPFILKATGGPNLRQMLPPPRPLPSAS

binding [1]: no binding
B5: Arabidopsis MKK2, GAL4-activating domain prey in pDEST22 (enzyme, UniProt Q9S7U9 1-363)
chain: MKKGGFSNNLKLAIPVAGEQSITKFLTQSGTFKDGDLRVNKDGVRIISQLEPEVLSPIKPADDQLSLSDLDMVKVIGKGSSGVVQLVQHKWTGQFFALKVIQLNIDEAIRKAIAQELKINQSSQCPNLVTSYQSFYDNGAISLILEYMDGGSLADFLKSVKAIPDSYLSAIFRQVLQGLIYLHHDRHIIHRDLKPSNLLINHRGEVKITDFGVSTVMTNTAGLANTFVGTYNYMSPERIVGNKYGNKSDIWSLGLVVLECATGKFPYAPPNQEETWTSVFELMEAIVDQPPPALPSGNFSPELSSFISTCLQKDPNSRSSAKELMEHPFLNKYDYSGINLASYFTDAGSPLATLGNLSGTFSV

binding [1]: no binding
B6: Arabidopsis MKK8, GAL4-activating domain prey in pDEST22 (enzyme, UniProt Q9M8J5 1-309)
chain: MVMVRDNQFLNLKLSPIQAPTTIPPCRFPIIPATKVSATVSSCASNTFSVANLDRISVLGSGNGGTVFKVKDKTTSEIYALKKVKENWDSTSLREIEILRMVNSPYVAKCHDIFQNPSGEVSILMDYMDLGSLESLRGVTEKQLALMSRQVLEGKNYLHEHKIVHRDIKPANLLRSSKEEVKIADFGVSKIVVRSLNKCNSFVGTFAYMSPERLDSEADGVTEEDKSNVYAGDIWSFGLTMLEILVGYYPMLPDQAAIVCAVCFGEPPKAPEECSDDLKSFMDCCLRKKASERWTASQLLNHPFLLHQD

binding [1]: binds
B7: Arabidopsis MKK3, GAL4-activating domain prey in pDEST22 (enzyme, UniProt O80396 1-520)
chain: MAALEELKKKLSPLFDAEKGFSSSSSLDPNDSYLLSDGGTVNLLSRSYGVYNFNELGLQKCTSSHVDESESSETTYQCASHEMRVFGAIGSGASSVVQRAIHIPNHRILALKKINIFEREKRQQLLTEIRTLCEAPCHEGLVDFHGAFYSPDSGQISIALEYMNGGSLADILKVTKKIPEPVLSSLFHKLLQGLSYLHGVRHLVHRDIKPANLLINLKGEPKITDFGISAGLENSMAMCATFVGTVTYMSPERIRNDSYSYPADIWSLGLALFECGTGEFPYIANEGPVNLMLQILDDPSPTPPKQEFSPEFCSFIDACLQKDPDARPTADQLLSHPFITKHEKERVDLATFVQSIFDPTQRLKDLADMLTIHYYSLFDGFDDLWHHAKSLYTETSVFSFSGKHNTGSTEIFSALSDIRNTLTGDLPSEKLVHVVEKLHCKPCGSGGVIIRAVGSFIVGNQFLICGDGVQAEGLPSFKDLGFDVASRRVGRFQEQFVVESGDLIGKYFLAKQELYITNLD

binding [2]: binds
B8: Arabidopsis MKK3, split-YFP fusion for BiFC (enzyme, UniProt O80396 1-520)
chain: B7 chain

binding [1]: no binding
B9: Arabidopsis MKK1, GAL4-activating domain prey in pDEST22 (enzyme, UniProt Q94A06 1-354)
chain: MNRGSLCPNPICLPPLEQSISKFLTQSGTFKDGDLRVNKDGIQTVSLSEPGAPPPIEPLDNQLSLADLEVIKVIGKGSSGNVQLVKHKLTQQFFALKVIQLNTEESTCRAISQELRINLSSQCPYLVSCYQSFYHNGLVSIILEFMDGGSLADLLKKVGKVPENMLSAICKRVLRGLCYIHHERRIIHRDLKPSNLLINHRGEVKITDFGVSKILTSTSSLANSFVGTYPYMSPERISGSLYSNKSDIWSLGLVLLECATGKFPYTPPEHKKGWSSVYELVDAIVENPPPCAPSNLFSPEFCSFISQCVQKDPRDRKSAKELLEHKFVKMFEDSDTNLSAYFTDAGSLIPPLAN

binding [1]: no binding
B10: Arabidopsis MKK9, GAL4-activating domain prey in pDEST22 (enzyme, UniProt Q9FX43 1-310)
chain: MALVRERRQLNLRLPLPPISDRRFSTSSSSATTTTVAGCNGISACDLEKLNVLGCGNGGIVYKVRHKTTSEIYALKTVNGDMDPIFTRQLMREMEILRRTDSPYVVKCHGIFEKPVVGEVSILMEYMDGGTLESLRGGVTEQKLAGFAKQILKGLSYLHALKIVHRDIKPANLLLNSKNEVKIADFGVSKILVRSLDSCNSYVGTCAYMSPERFDSESSGGSSDIYAGDIWSFGLMMLELLVGHFPLLPPGQRPDWATLMCAVCFGEPPRAPEGCSEEFRSFVECCLRKDSSKRWTAPQLLAHPFLREDL

binding [1]: no binding
B11: Arabidopsis MKK6, GAL4-activating domain prey in pDEST22 (enzyme, UniProt Q9FJV0 1-356)
chain: MVKIKSNLKQLKLSVPAQESPISSFLTASGTFHDGDFLLNQKGLRLTSDEKQSRQSDSKELDFEITAEDLETVKVIGKGSGGVVQLVRHKWVGKFFAMKVIQMNIQEEIRKQIVQELKINQASSQCPHVVVCYHSFYHNGAFSLVLEYMDRGSLADVIRQVKTILEPYLAVVCKQVLLGLVYLHNERHVIHRDIKPSNLLVNHKGEVKISDFGVSASLASSMGQRDTFVGTYNYMSPERISGSTYDYSSDIWSLGMSVLECAIGRFPYLESEDQQNPPSFYELLAAIVENPPPTAPSDQFSPEFCSFVSACIQKDPPARASSLDLLSHPFIKKFEDKDIDLGILVGTLEPPVNYLR

binding [1]: no binding
B12: Arabidopsis MKK10, GAL4-activating domain prey in pDEST22 (enzyme, UniProt Q9LQM8 1-305)
chain: MTLVRERRHQEPLTLSIPPLIYHGTAFSVASSSSSSPETSPIQTLNDLEKLSVLGQGSGGTVYKTRHRRTKTLYALKVLRPNLNTTVTVEADILKRIESSFIIKCYAVFVSLYDLCFVMELMEKGSLHDALLAQQVFSEPMVSSLANRILQGLRYLQKMGIVHGDIKPSNLLINKKGEVKIADFGASRIVAGGDYGSNGTCAYMSPERVDLEKWGFGGEVGFAGDVWSLGVVVLECYIGRYPLTKVGDKPDWATLFCAICCNEKVDIPVSCSLEFRDFVGRCLEKDWRKRDTVEELLRHSFVKNR
